This note sets out measurements from ChEMBL document CHEMBL1157539, “Thousands of chemical starting points for antimalarial lead identification” (Nature, 2010).

Whole data set: some 13,000 compounds, median “IFI” near 4, cut for the highest 2% near 17. Some of the results follow.

This assay in a line: GSK_TCMDC: Inhibition Frequency Index (IFI). The number of non-kinase HTS assays where a compound showed > 50 % inhibition, expressed as a percentage of the number of such assays in which the compound was tested (-0 is zero). The class given is functional.
Turning to `CCOC(=O)c1cncc(/C=C/c2cc(C)cnc2N)c1`, the IFI turned out to be 0%. As for `CN1CCC(N(Cc2ccc(-c3ccc(C(F)(F)F)cc3)cc2)C(=O)Cn2c(SCc3cccc(F)c3F)cc(=O)c3c2CCC3)CC1`, the IFI was determined as 9.03%. Consider `Cc1ccc2[nH]c3c(NCCCN4CCOCC4)ncnc3c2c1`, for which the IFI came to 0%. Molecule `Cc1cccc2nc(-c3cccc(-c4cccc(NC(=O)Nc5ccc(F)c(F)c5F)c4)c3)[nH]c12` showed an IFI of 6.86%. In the case of `O=C(NC1CCN(Cc2ccccc2)CC1)c1ccc(-c2nc3cc(Cl)c(F)cc3[nH]2)cc1` it was 1.45%; in that of `NC(=O)c1ccc(-n2cnc3cc(F)ccc32)cc1OCc1ccccc1C(F)(F)F.NC(=O)c1ccc(-n2cnc3ccc(F)cc32)cc1OCc1ccccc1C(F)(F)F`, 8.59%; in that of `O=C(/C=C/c1ccc(Cl)c(Cl)c1)NCCCCCN1CCC(NC(=O)Nc2cccc(Cl)c2F)CC1`, 6%. On to `COCc1cc(C)nc2sc(C(=O)Nc3cc(C(C)(C)C)ccc3O)c(N)c12`, for which the IFI was 3.57%. Take `CCn1c(-c2nonc2N)nc2c(-c3cccc(NC(=O)NCc4ccccc4)c3)ncc(OCCCN)c21`: the IFI turned out to be 12.9%. In the case of `Cc1cccc2nc(-c3cccc(-c4ccc(NC(=O)NC5CC5c5ccccc5)cc4)c3)[nH]c12` (configuration not stated) it was 4%.

Turning to `CCCc1ccc(S(=O)(=O)NC2CCN(c3ccnc(Nc4ccc(OC)cc4)n3)C2)cc1` (configuration not stated), the IFI is 14.7%. For `Cc1cc(NC(=O)NCCN2CCC(NS(=O)(=O)c3cccc(Br)c3)C2)c2ccccc2n1` (configuration not stated), the IFI was found to be 0.87%. The result for `Cc1cccc2nc(-c3ccc(-c4ccc(NC(=O)Nc5ccsc5)cc4)cc3)[nH]c12` reads 8%; that for `CCCC1(NC[C@@H](O)[C@H](Cc2ccccc2)NC(=O)c2cc(NCC)cc(N3CCCCS3(=O)=O)c2)CCCCC1`, 2.88%. `COc1ccc(CNCCCCCCCNCc2ccc(Cl)c(Cl)c2)cc1Cl` came in with an IFI of 4.32%. The result for `COc1ccc(NC(=O)c2ccc(-c3nc(-c4ccccc4)cs3)cc2)cc1N1CCN(C)CC1` reads 6.85%; that for `Cc1cccn2c(=O)c3cc(C(=O)NC(C)c4ccccc4)c(=N)n(CCN4CCOCC4)c3nc12` (configuration not stated), 2.86%. The result for `Cn1cnc(CCNC(=O)c2cccc(-c3cccc(-c4nc5cc(C(F)(F)F)ccc5[nH]4)c3)c2)c1` reads 5.66%. In the case of `COc1ccc2nc3cc(Cl)ccc3c(NCCCCCCNc3c4ccc(Cl)cc4nc4ccc(OC)cc34)c2c1` it was 3.65%; in that of `Oc1ccc(-c2ccccc2)cc1CN1CCCCCC1`, 0.84%; in that of `Cc1nnsc1C(=O)Nc1ccc(-c2ccc(-c3nc4ccccc4[nH]3)s2)cc1`, 6.19%. For `CN(C)CCOc1cc(NC(=O)Nc2ccc(-c3ccncc3)c(C(F)(F)F)c2)ccc1Cl`, the IFI worked out at 4.44%. Molecule `N#CCCn1nc(-c2ccc(Cl)cc2)c2c(c1=O)CCCC2` came in with an IFI of -0%.

`CC(=O)c1ccc(-c2cccc3c(CC(=O)Nc4ccc5nccc(N6CCN(C)CC6)c5c4)cccc23)cc1` displayed an IFI of 7.14%. The result for `O=[N+]([O-])c1ccc(/C=N/O)nc1` reads 23.4%. On to `CCN(Cc1ccccc1)C1CCN(Cc2cc(Br)ccc2O)CC1`, for which the IFI turned out to be 2.14%. `C=CCOc1ccccc1CNCC(O)c1cc(Br)cs1` (configuration not stated): the IFI turned out to be 1.64%. In the case of `N#Cc1cccc(CN2CCCN(Cc3cccc(C(=O)Nc4ccc(Cl)cc4)c3)CC2)c1` it was 5%; in that of `Oc1ccc(CCNCCCCCCNCCc2ccc(Cl)cc2)c(Cl)c1O`, 8.73%; in that of `CN(C)CCCN(C)C(=O)c1cc2cc(-c3ccccc3)ccc2n1S(=O)(=O)c1ccccc1`, 6.94%. Molecule `Cc1nc(C)c(-c2ccc(C(=O)c3ccc(Cl)cc3)cc2)c(O)c1Br` gave an IFI of 4.41%. As to `CCC(C)(C)c1ccc(S(=O)(=O)Nc2ccc(Cl)c(OCCN3CCCCC3)c2)cc1`, the IFI is 43.1%. In turn, `COc1cc(OC)c2c(C)cc(NCCCn3ccnc3)nc2c1` had an IFI of 1.47%. Consider `O=C(/C=C/c1ccc(Cl)c(Cl)c1)NCCCCCN1CCC(c2c[nH]c3ccccc23)CC1`, for which the IFI amounted to 5.96%.

In turn, `COc1ccc2nccc(N/N=C/c3cccc([N+](=O)[O-])c3)c2c1` registered an IFI of 2.9%.

Regarding `CCCN(CCC)C(=O)c1cc(C(=O)N[C@@H](Cc2ccccc2)[C@H](O)CNCc2cccc(OC)c2)cc(N2CCCCS2(=O)=O)c1`, the IFI worked out at 1.47%. In the case of `Cc1[nH]c2ccccc2c(=O)c1Br` it was -0%. `CC(C)Cc1ccc(N2CCN(CCCCNC(=O)c3ccc(NC(=O)c4ccc(Cl)c(Cl)c4)cc3)CC2)cc1` had an IFI of -0%. Take `Cc1nc2ccccc2n1C1CC2CCC(C1)N2CCCC1(c2ccccc2)CCN(C(=O)OCc2ccccc2)CC1` (configuration not stated): the IFI was 12.8%. In turn, `CCOC(=O)CCCOc1cc(Cc2cnc(N)nc2N)cc(OC)c1OC` returned an IFI of 1.46%. In the case of `COc1cc2cc(-c3nc4ccccc4[nH]3)c(N)nc2cc1OC` it was 10.3%; in that of `CN(Cc1cc(C(F)(F)F)cc(C(F)(F)F)c1)C(=O)C1CNCC1c1ccc(F)cc1` (configuration not stated), 2.5%; in that of `CC(C)(CNCc1cc(Cl)cc(Cl)c1)c1nc(-c2ccnc(N)n2)c(-c2ccc(Cl)c(O)c2)[nH]1`, 10.6%. The result for `Cc1ccc2c(c1)NCC21CCN(C[C@@H](O)C2CCN(c3ccnc(Cl)c3)CC2)CC1C` (some centres not stated) reads 0%; that for `CCCN(CCC)CCCN(CCCN(CCC)CCC)c1cc(C)nc(Nc2ccc3cc(Br)ccc3c2)n1`, 12.8%; that for `COc1cc(OC)c(OC)cc1CN1CCC2(CC1)CN(Cc1ccc(Cl)c(Cl)c1)C(=O)O2`, 4.11%. `COc1ccc2nccc([C@@H](O)CN3CCC(NCc4cc5ccc(Cl)cc5[nH]4)CC3)c2c1` registered an IFI of 6.47%.

Take `CC(C)(Oc1c(C2CCN(CCCCNC(=O)c3ccc(-c4ccc(Cl)cc4)cc3)CC2)ccc2c1CCCC2)C(N)=O`: the IFI worked out at 11.4%. In the case of `Cc1cc(NC(=O)[C@H](CC2CCCCC2)Nc2ccc(C#N)c3ccccc23)ccc1F` it was 7.55%. With `Cc1ccc2[nH]c(-c3ccccc3Nc3ccnc4cc(-c5nccs5)ccc34)nc2c1`, the IFI is 7.14%.

Molecule `Cc1ccc(Cn2ncc(N3CC(C)NC(C)C3)c(Cl)c2=O)cc1NC(=O)Nc1ccc(-c2ccccc2)cc1` (configuration not stated) yielded an IFI of 4.17%. The result for `COc1ccc(S(=O)(=O)NC2CCN(c3cc(C)nc(Nc4cccc(C#N)c4)n3)CC2)cc1` reads 4%; that for `O=C(/C=C/c1ccc(Cl)c(Cl)c1)N1CCN(C(=O)Nc2cccc(C(F)(F)F)c2)CC1`, 24.2%. Molecule `CCN(CC)S(=O)(=O)n1ncc2c3c(N)nc(N)nc3ccc21` showed an IFI of 1.38%.

Consider `CCCCOC(=O)C1=C(C)NC2=C(C(=O)CC(c3ccc(OC)c(OC)c3)C2)C1c1ccc(O)cc1` (configuration not stated), for which the IFI was 2.78%. For the molecule `O=C(/C=C/c1ccc(Cl)cc1)NCCCCCN1CCC(C(=O)Nc2cccc(Cl)c2)CC1`, the IFI stood at 9.52%. In the case of `O=C(/C=C/c1ccc(Cl)c(Cl)c1)N1CCN(C(=O)Nc2ccc(C(F)(F)F)cc2)CC1` it was 22.1%. The molecule `N#Cc1nc2ccc(OCCN(Cc3ccccc3C(F)(F)F)c3ccc(C#N)c(C(F)(F)F)c3)cc2s1` gave an IFI of 3.13%. In the case of `COCc1ccccc1C(=O)NCCOc1cc(C)cc(C)c1` it was -0%.

With `O=C(NCc1cccc(C(F)(F)F)c1)c1ccc(-c2nc3cc(F)c(F)cc3[nH]2)cc1`, the IFI stood at 0.72%.

`CS(=O)(=O)N(c1cccc(F)c1)c1cc(C(=O)N[C@@H](Cc2ccccc2)[C@H](O)CNCc2cccc(C(F)(F)F)c2)cc(N2CCCC2=O)c1` returned an IFI of 5.93%. For the molecule `Cc1cccc2nc(-c3ccc(-c4cccc(NC(=O)CN5CCN(C)CC5)c4)s3)[nH]c12`, the IFI stood at 6.31%.

Consider `Cc1ccc(C)c(Cn2ccc3nc(N)nc(N)c32)c1`, for which the IFI came to 3.65%. The result for `CCc1cccc(-c2cc(N)n(C)c3nc(N)nc(=O)c2-3)c1` reads -0%. In the case of `CCCNS(=O)(=O)c1ccc(NC(=O)C(C)Oc2ccc([N+](=O)[O-])cc2)cc1` (configuration not stated) it was 17.5%. The result for `CC(C)C[C@@H](/C=N/N1CC(=O)NC1=O)NC(=O)[C@H](CC(C)C)NC(=O)c1ccc(OCCN2CCOCC2)cc1` reads 5.45%. In the case of `CC1(C)NC(N)=NC(=N)N1OCc1ccc(-c2ccccc2)cc1`, the IFI came out at 7.86%. As to `COC(=O)c1ccc(-c2ccc(-c3cccnc3)cc2C)cc1`, the IFI worked out at 21.7%. For `c1ccc(CN2CCC(NCc3ccccc3-c3ccc(CNCc4ccc5c(c4)OCO5)cc3)CC2)cc1`, the IFI turned out to be 10.9%. `COc1ccc(-n2c(=O)c3c(n4c(SC(C)C)nnc24)-c2ccccc2CC32CCCCC2)cc1` registered an IFI of 0.83%.

The molecule `CN(C)Cc1cccc(-c2ccc(NC(=O)c3ccc4c(=O)n(CC5CCCO5)cnc4c3)cc2)c1` (configuration not stated) showed an IFI of 2%. In the case of `Cc1cc(N[C@@H](Cc2ccccc2)C(=O)NCc2cccs2)nc(Nc2ccccc2)n1` it was 2.33%; in that of `CCN(CC)CC(O)Cc1c2ccc([N+](=O)[O-])cc2nc2cc(OC)c(OC)cc12` (configuration not stated), 2.82%. `NC(=O)c1cccc(-n2ccc3cc(CNC4Cc5ccccc5C4)ccc32)c1` registered an IFI of 3.85%. The result for `N#Cc1cc(N(CCCOc2cccc(OC(F)(F)F)c2)Cc2ccccc2C(F)(F)F)ccc1C(F)(F)F` reads 0%; that for `COc1ccc(Nc2ncc(C#N)c(Nc3ccccc3C(N)=O)n2)cc1N1CCN(C)CC1`, 11.5%. In turn, `CN1CCCN(c2ccnc3cc4c(cc23)N(C(=O)c2ccc(Cl)cc2)CC4)CC1` had an IFI of 0.73%. In the case of `NC(=O)c1cnc2cc(-c3ccncc3)cc(Nc3ccc(NC(=O)C4CCCCC4)cc3)c2c1` it was 2.16%; in that of `COc1cc(Cc2cnc(NCCN3CCNCC3)nc2N)ccc1OCc1ccc(C(F)(F)F)cc1`, 6%; in that of `NCc1ccc(CNCc2cccc(-c3cccc(-c4nc5ccccc5[nH]4)c3)c2)cc1`, 7%. Take `CS(=O)(=O)c1ccc(CNCc2cccc(-c3cccc(-c4nc5ccccc5[nH]4)c3)c2)cc1`: the IFI was 2.88%. In the case of `CC(C)(CNC(=O)[C@H]1CCCN1)c1nc(-c2ccc(Cl)c(O)c2)c(-c2ccncc2)[nH]1` it was 0.79%; in that of `CN(CCN)Cc1ccc(-c2ccc(-c3nc4cc(C(F)(F)F)ccc4[nH]3)s2)cc1`, 11.9%. The result for `O=C(Nc1ccc(-c2ccc(-c3nc4ccccc4[nH]3)cc2)cc1)Nc1ccc(Cl)c(Cl)c1` reads 3.96%; that for `CC(=O)Nc1ccc(C#Cc2ccc(-c3c(C)[nH]c(C)c(Cl)c3=O)cc2)cc1`, 0.88%; that for `CCCC(C)NC(=O)c1cnn(-c2ccc(C(C)(C)C)cc2)c1OCc1ccc(Br)cc1` (configuration not stated), 2.86%.

`O=C(NCC1CCN(CC2CCCCC2)C1)c1cc(-c2cccc(Cl)c2)cs1` (configuration not stated) came in with an IFI of 8%.
